Measurements reported in PubChem BioAssay AID1452 (National Center for Advancing Translational Sciences (NCATS), 2008).
Hit rate of the full screen: of about 150,000 compounds, about 190 (0.13%) were called active. Inconclusive results, whose numbers are uncertain, are shown with a selection of clear calls. Calls follow the shape of the dose curve; as a rule, active = well fitted inhibition curve with a large enough effect; inconclusive = small, poorly fitted or top-dose-only effect; inactive = flat fitted curve, though single readings scatter. Where the call is inconclusive, the potency comes from a doubtful curve fit.

molecular target: Polyunsaturated fatty acid lipoxygenase ALOX12 (Homo sapiens) (UniProt P18054); experiment: qHTS Assay for Inhibitors of 12-hLO (12-human lipoxygenase); settings: purified 12-hLO, xylenol orange hydroperoxide absorbance; series mostly up to 57.1 µM; activity change, negative = inhibition: at the top concentration; also: nearly all actives have a fitted effect of over 55% in size
Method in brief: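 Purified human 12hLO (150 nM), preincubated 15 min with compound, then 40 uM arachidonic acid for 30 min, room temperature, Hepes pH 7.0 with 0.01% Triton X-100. Hydroperoxide detected by ferrous iron/xylenol orange; 573/405 nm absorbance ratio gives reaction progress.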
% is scaled to controls: 0 for no effect and ±100 for the full control effect; potency is read from the fitted curve at half-maximal effect; tags tell the direction and shape of the fitted curve.

Sequence of UniProt P18054 (P18054 whole entry, looked up): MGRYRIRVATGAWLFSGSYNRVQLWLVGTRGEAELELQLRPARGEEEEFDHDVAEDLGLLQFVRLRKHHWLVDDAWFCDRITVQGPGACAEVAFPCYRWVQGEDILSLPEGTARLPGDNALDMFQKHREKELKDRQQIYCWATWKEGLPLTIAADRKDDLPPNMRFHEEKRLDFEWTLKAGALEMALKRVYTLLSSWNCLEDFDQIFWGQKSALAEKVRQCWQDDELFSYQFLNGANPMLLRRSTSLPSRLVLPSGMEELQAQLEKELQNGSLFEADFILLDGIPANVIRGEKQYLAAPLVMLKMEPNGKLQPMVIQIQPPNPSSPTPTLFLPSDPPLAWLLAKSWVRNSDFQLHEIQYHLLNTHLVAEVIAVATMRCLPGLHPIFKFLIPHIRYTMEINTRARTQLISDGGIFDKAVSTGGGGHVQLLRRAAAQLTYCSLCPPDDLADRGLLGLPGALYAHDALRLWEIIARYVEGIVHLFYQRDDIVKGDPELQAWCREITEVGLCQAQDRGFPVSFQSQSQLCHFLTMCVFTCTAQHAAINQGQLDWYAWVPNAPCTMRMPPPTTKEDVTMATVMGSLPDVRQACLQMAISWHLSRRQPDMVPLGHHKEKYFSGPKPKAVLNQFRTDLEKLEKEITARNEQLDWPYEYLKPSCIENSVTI

SMILES | activity change, negative = inhibition | Potency
O=[N+]([O-])c1ccc2[nH]nc(-c3ccccc3)c2c1 | inactive: -3.85% | –
CCOC(=O)c1c(N)n(CCOC(=O)c2cccs2)c2nc3ccccc3nc12 | – | inconclusive: 35.5 µM [inhibitor, single point]
O=C1CN(CC(=O)N2CCOCC2)c2ccccc2O1 | – | inconclusive: 28.2 µM [inhibitor, partial curve]
Nc1cccc2c1C(=O)N(C(=O)c1cccc(S(=O)(=O)N3CCCC3)c1)C2=O | – | inconclusive: 7.08 µM [inhibitor, single point]
CCc1ccc(NC(=S)NC2CC3CCCC(C2)N3Cc2cccs2)cc1 (centres undefined) | – | inconclusive: 35.5 µM [inhibitor, single point]
O=C(NCCN1C(=O)S/C(=C\c2ccccc2)C1=O)c1cc(S(=O)(=O)N2CCOCC2)c(Cl)cc1Cl | inactive: -3.49% | –
O=C1C=C(Nc2ccc(O)cc2)CC(c2ccco2)C1 (centres undefined) | – | inconclusive: 28.2 µM [inhibitor, single point]
CC1(C)CC(=S)Nc2ccccc2S1 | – | inconclusive: 39.8 µM [inhibitor, single point]
CCCc1cc(-c2n[nH]c(C)c2-c2ccc(C(=O)OCC)o2)c(O)cc1O | – | inconclusive: 14.1 µM [inhibitor, partial curve]
CSc1cc2c(cc1C(F)(F)F)N(C(=O)Nc1cccnc1)CC2 | inactive: -1.79% | –
CCOc1ccc(C(=O)NC(=S)Nc2cccc(NC(=O)c3ccco3)c2)cc1[N+](=O)[O-] | – | inconclusive: 20 µM [inhibitor, partial curve]
CC(C)Oc1cccc(C(=O)NC(=S)N2CCN(c3ccc(C(F)(F)F)cc3[N+](=O)[O-])CC2)c1 | – | inconclusive: 22.4 µM [inhibitor, partial curve]
S=C(NCCc1ccccc1)NC1CCCCCC1 | – | inconclusive: 31.6 µM [inhibitor, single point]
c1ccc(N2CCN(c3nc(NCc4ccco4)c4ccccc4n3)CC2)cc1 | – | inconclusive: 39.8 µM [inhibitor, single point]
O=C(N/N=C/c1cc(Br)ccc1O)C(=O)Nc1ccccc1OC(F)(F)C(F)F | – | inconclusive: 0.251 µM [inhibitor, full curve, poor fit]
Cc1ccc(-c2nc(=S)c3c(n2Cc2ccco2)CCCC3)cc1 | – | inconclusive: 39.8 µM [inhibitor, single point]
COc1ccc2cc(CN(Cc3ccco3)Cc3nnnn3C3CCCCC3)c(=O)[nH]c2c1 | – | inconclusive: 31.6 µM [inhibitor, single point]
COc1cc(OC)c(C2CC(=O)N3CN(c4ccc(C)cc4)CSC3=C2C#N)cc1OC (centres undefined) | – | inconclusive: 31.6 µM [inhibitor, single point]
COc1cccc(NC(=O)c2ccc(CN3CCOCC3)cc2)c1 | inactive: 4.7% | –
COc1cccc(CNc2ncc(Br)cc2Br)c1O | – | inconclusive: 31.6 µM [inhibitor, single point]
COCCNC(=S)NCCCNc1nc2cc3c(cc2cc1C#N)OCO3 | – | inconclusive: 28.2 µM [inhibitor, single point]
Cc1[nH]n(-c2ccccc2)c(=S)c1C=Nc1ccc([N+](=O)[O-])cc1 | – | inconclusive: 12.6 µM [inhibitor, partial curve]
Cc1c2c(nc3nc4ccccc4n13)CCCC2=O | inactive: -2.57% | –

SMILES | activity change, negative = inhibition | Potency
Cc1cc2ccccn2c1C(=S)NC(=O)c1ccccc1 | – | inconclusive: 22.4 µM [inhibitor, single point]
CNc1ccc(Br)cc(C(=O)/C=C/c2cc(OC)ccc2OC)c1=O | inactive: -27.6% | –
S=C(NCc1ccccc1)NCc1ccc(CNC(=S)NCc2ccccc2)cc1 | – | inconclusive: 35.5 µM [inhibitor, single point]
N#C/C(=C\c1ccc(O)c(O)c1)C(=O)OCCc1cccs1 | – | inconclusive: 12.6 µM [inhibitor, full curve]
Cc1ccc(S(=O)(=O)NCCCCCC(=O)N(C)C)cc1 | inactive: -3.11% | –
COc1cccc(N2C(=O)C3CCCN3C2c2ccc(Cl)cc2)c1 (centres undefined) | inactive: -0.729% | –
COc1ccccc1C(=O)N(NC(=O)Oc1ccccc1)C(C)(C)C | inactive: -0.806% | –
CCN(c1ccccc1)S(=O)(=O)c1ccc(NCC2COc3ccccc3O2)nc1 (centres undefined) | – | inconclusive: 0.562 µM [inhibitor, full curve, poor fit]
O=C1c2ccccc2NC(c2ccc(-c3cccc(Cl)c3)o2)N1O (centres undefined) | – | inconclusive: 2.51 µM [inhibitor, partial curve, poor fit]
Cc1cccc(NC(=S)NCCc2c[nH]c3ccccc23)c1 | – | inconclusive: 39.8 µM [inhibitor, single point]
Cc1ccc(C(=O)c2sc3nsc(C)c3c2N)cc1 | – | inconclusive: 15.8 µM [inhibitor, partial curve]
CCCCOC(=O)Nc1ccc(S(=O)(=O)Nc2ccc([N+](=O)[O-])cc2)cc1 | – | inconclusive: 14.1 µM [inhibitor, partial curve]
CC1(C)SC(=S)N(/N=C/c2ccc(O)cc2)C1N(O)C(=O)Nc1ccc([N+](=O)[O-])cc1 (centres undefined) | – | inconclusive: 28.2 µM [inhibitor, partial curve]
COc1ccc2c(c1)OCC1=C2CCC2(C)C(=O)CC=C12 (centres undefined) | – | inconclusive: 31.6 µM [inhibitor, single point]
Cc1cccc(NC(=S)NNC(=O)c2csc3c2CCC(C)C3)c1 (centres undefined) | – | inconclusive: 31.6 µM [inhibitor, single point]
Cc1ccc2nc(NC(=O)CCNS(=O)(=O)c3ccc(Br)s3)sc2c1 | – | inconclusive: 15.8 µM [inhibitor, partial curve]
O=C(c1cccc(F)c1)N1CCC2(CCCN(c3ccccc3)C2)CC1 | inactive: -9.68% | –
Nc1ccc(N2CCN(c3cccc(Cl)c3)CC2)cc1 | – | inconclusive: 25.1 µM [inhibitor, single point]
CCC(NC(=O)C1CCC1)c1ccccc1 (centres undefined) | inactive: 0.433% | –
CC(=O)N1c2ccccc2C2(O)N=C(C)SC12 (centres undefined) | – | inconclusive: 12.6 µM [inhibitor, partial curve]
Cn1c(-c2ccc(-c3ccccc3)cc2)c[nH]c1=S | – | inconclusive: 20 µM [inhibitor, partial curve]
NC(=S)N/N=C/c1ccccc1OCc1cccc(Cl)c1 | – | inconclusive: 39.8 µM [inhibitor, single point]
COc1ccc(S(=O)(=O)N2CCC(C(=O)N3CCCCCC3)CC2)cc1 | inactive: -3.8% | –

SMILES | activity change, negative = inhibition | Potency
CCCCOc1ccc(-c2cc(C(=O)NNC(=S)NCC)c3ccccc3n2)cc1 | – | inconclusive: 39.8 µM [inhibitor, single point]
Oc1cccc2ccc(Nc3ccccn3)nc12 | – | inconclusive: 7.94 µM [inhibitor, full curve, poor fit]
Cc1ccc2c(c1)cc(CN(Cc1ccc3c(c1)OCO3)C(=O)c1cnccn1)c1nnnn12 | inactive: -4.49% | –
O=c1c(-c2ccc3c(c2)OCCO3)coc2cc(O)cc(O)c12 | – | inconclusive: 0.178 µM [inhibitor, full curve, poor fit]
CC(C)Cn1c(-c2csc3c2CCCC3)n[nH]c1=S | – | inconclusive: 12.6 µM [inhibitor, partial curve]
O=C(Nc1cccc(F)c1)N1CCCC2(CCN(C(=O)c3csnn3)CC2)C1 | inactive: 4.55% | –
Clc1ccc2c(c1)c1ccccc1n2CN1CCOCC1 | – | inconclusive: 35.5 µM [inhibitor, single point]
COc1ccc(C2NC(=S)N(c3ccccc3)C(C)=C2C(=O)Nc2ccccc2)cc1 (centres undefined) | – | inconclusive: 28.2 µM [inhibitor, partial curve]
COC(=O)CN(c1ccccc1)S(=O)(=O)c1ccccc1 | – | inconclusive: 8.91 µM [inhibitor, single point]
CCOC(=O)c1ccc(N/C=C2/CCCC(C)C2=O)cc1 (centres undefined) | inactive: -5.94% | –
NC(=S)NNc1cc(Cl)cc(Cl)c1 | – | inconclusive: 17.8 µM [inhibitor, partial curve]
Cn1c(C(=O)N2CCCC(C(=O)NCCCSC3CCCCC3)C2)cc2sccc21 (centres undefined) | – | inconclusive: 28.2 µM [inhibitor, single point]
Cc1cc2n(n1)SC(Nc1cc(Cl)ccc1Cl)N2 (centres undefined) | – | inconclusive: 25.1 µM [inhibitor, partial curve]
Cc1ccc(NC(=S)N/N=C/c2ccc([N+](=O)[O-])s2)cc1 | – | inconclusive: 22.4 µM [inhibitor, single point]
CCC(=O)N1CCN(c2ccc(Cl)cc2NC(=O)Cc2ccc(Cl)cc2)CC1 | inactive: -1.63% | –
Cc1ccc2c(c1C)NC(C(=O)O)C1CC=CC21 (centres undefined) | – | inconclusive: 11.2 µM [inhibitor, partial curve]
CCOC(=O)c1ccc(N2CSC3=C(C#N)C(c4ccc(OC)cc4OC)CC(=O)N3C2)cc1 (centres undefined) | – | inconclusive: 35.5 µM [inhibitor, single point]
CCOc1ccccc1N=c1oc2cc(O)ccc2cc1C(=O)NCC1CCCO1 (centres undefined) | – | inconclusive: 15.8 µM [inhibitor, single point]
CC1=NN(c2ccc(Cl)cc2)C(=O)C1C(c1ccccc1O)c1c(C)[nH]n(-c2ccc(Cl)cc2)c1=O (centres undefined) | – | inconclusive: 25.1 µM [inhibitor, single point]
Cc1ccc(NC(=S)Nc2ncccc2C)c(C)c1 | – | active: 17.8 µM
N#C/C(=C/c1ccc(-c2ccc(Br)cc2)o1)C(=O)NC1CCCCC1 | inactive: -1.76% | –
CCOc1ccccc1NC(=S)/C(=C(\[O-])c1ccc2c(c1)OCCO2)[n+]1ccc(CC)cc1 | inactive: -18.6% | –
C=C(C)CNC(=S)N/N=C(\C)c1ccc(Cl)s1 | – | inconclusive: 25.1 µM [inhibitor, single point]
